B1: traf2_out_20_38_2039 (protein)
chain: SEEEEEERRLEEAVEVANEALDKYEEKIAELKAKGKSVEEIAEWAKEKVKEILGKAGLEEEAKILVEQIDTVKNSPDAERLIARILARAEALVWQKKQNE
B2: traf2_out_17_178_1741 (protein)
chain: SKEEILKEISKLADEMIDVSREAAEKLTELAEKEGILTPELRERLDLVARTSNLYAFEEVANELIELSKNKEEIQKLLDETTKKLRELRKKIQEAVEKLK
B3: traf2_out_13_95_1158 (protein)
chain: SKELAEKIMEIADKMLDESLKILEELLKIAEKKGKLVEEVKEALHLAETHSINEAIHKLKELSKAHPEFKEEFDEAIKKLEELRREAGREVARLIKEEKE
B4: traf2_out_11_155_755 (protein)
chain: SEKLKLLNEMNNKVQDVFDKAREEALKIAKEAAEEHPEHKEEIEKAIKENEHFSAKSFILNMIELFKELGLEEYAKKLEELLEKTQKEANKIVIETEKKL
B5: traf2_out_20_3_2231 (protein)
chain: EKLKEEAEKELEKALKQLEKLVKKADPERAKKLEELIKKLEEAKELDPVDALVVASEVRRELLLLAQEAEAEGDEELAKLLKEAAELLQRLMQLLYKIIE
B6: traf2_out_20_3_2140 (protein)
chain: EELEKELEKELKKAIELLKEAAKLADPETKAELDKLIKELKASKELSPEDRLVKLSEIRRKVRELAEKAKAKGKEELAKLLEEAADALNRAMNLVMKIIE
B7: traf2_out_15_17_1309 (protein)
chain: SAEKELNEKIREATNKVLDEHEKVLEELIEKARKEAEKAGVLEELEKLVEESKDYSVISRVQILALFAKKKGFEELAKELEEAAEKMRKDFSEAVKAAEK
B8: traf2_out_17_162_1558 (protein)
chain: SEIEKRWEKLKEELKELEKRVEALEKRLERLAELTPEEIRDLLVEASEVKRRALELAEEAEKLKEKIGEEEAQKLIDEANEIAERAQRIANTLYKALEKK
B9: traf2_out_9_17_2619 (protein)
chain: AAAAEARRAAILEVTDEILDELIEEGLITEEEAEEIRKKVREAIEAGKSVDEVRALFLGSIASILLQPDGLSVQEAQKVVGRVYRRWRELLAEREAAAAA
B10: traf2_out_1_27_999 (protein)
chain: SDKEIAERIREVLKRASELSPEERLRLAAEAVREFLGIGIGDARTLVVTLVLMEKREEDRERLLEVAEEVMRELGVSEEEIALIRRQALTAWERYQKALA
B11: traf2_out_15_17_1307 (protein)
chain: SAEEKKNEAIRKAMNEVLDKNEKRLDELVAEARAEAKKLGKLEELNALLEKTKDYSVRSRVLALAAWAKSWGLEDLAARAEAAAEEIAKEAAEAYAKVEK
B12: traf2_out_13_95_1061 (protein)
chain: SRETAKKINELADKAEEEALALLEEARAELADDPEAVAALDEAARALETRGIRAAIHILRQARDAMPEHKAEFDALIARLEAIRRDLGRKVAEIIKEEEE
B13: traf2_out_18_147_1814 (protein)
chain: TYEEAIDKLADLRERIRKLMDEIAKLTGKPEEAAKLRDILTSTSVPLEEKEAAVEKAKKEAKALGKEEAVKLLDEALALSKELREAAREANRLMIEEEEE
B14: traf2_out_15_48_1348 (protein)
chain: NIEALQKTAREIADLADEKRDEVIARLEELQKQATPEEAKILQEIADAARSGATLRDVRGLLLAAQPQLSPEIAAKVKAIAEEIDEVIREMSKLYNEVEK
B15: traf2_out_16_62_1465 (protein)
chain: EEEKEELRKKADEYIDAAQELRDTVITYVSGGDRAAALARLAALAAKYGPEVEALLAALRRAEADPANRAAYLAEADDLAVAVRTRLVKKALELEEQAKK
B16: traf2_out_11_169_854 (protein)
chain: EEEKKNREIIDKALELNDEAKEKLKKHALELAKKAGLDVEEVKAIFEKHKGKSLSAIAAALIEWFRSKGEEEVAKEVLKKYEELKEEINKEMTAFIKELK
B17: traf2_out_17_162_1622 (protein)
chain: MSIEEKLRRLEERLERLEEELKRLEELKKRIEELSKEELTDYLVEASEARREALEAIEELDKLKDKIPEEVYERLKERFEEIAERFQRIANIFYKKLEEK
B18: traf2_out_6_169_2490 (protein)
chain: SMAEELKKEAEKHLKTAKELLEIAKTIYNQAKNNKKYEKIDDYIEALETIKNSIKHHYDKAIAYYEKLGKKEEAAKLKEEKEKVLKEIEEMIKELKELKK
B19: traf2_out_18_117_1803 (protein)
chain: GELEKAQEEFKKALEEFEKVLTEAQKVAGKLIEKYPHNLPEEVTDAIVEMGELKREARLLEQLAKEHSEDLEKLKEITKRVKELTKKMKEILKKLKELLE

Whole data set: some 1,800 sequences, median “median log2 fold change of GCK-ALFA target abundance (FLAG IP / Myc IP barcode read proportion)” near 0.14, cut for the lowest 2% near -0.84. The list shows a part of the results.

The target of this experiment is T1, TRAF2, Q12933.
T1 chain: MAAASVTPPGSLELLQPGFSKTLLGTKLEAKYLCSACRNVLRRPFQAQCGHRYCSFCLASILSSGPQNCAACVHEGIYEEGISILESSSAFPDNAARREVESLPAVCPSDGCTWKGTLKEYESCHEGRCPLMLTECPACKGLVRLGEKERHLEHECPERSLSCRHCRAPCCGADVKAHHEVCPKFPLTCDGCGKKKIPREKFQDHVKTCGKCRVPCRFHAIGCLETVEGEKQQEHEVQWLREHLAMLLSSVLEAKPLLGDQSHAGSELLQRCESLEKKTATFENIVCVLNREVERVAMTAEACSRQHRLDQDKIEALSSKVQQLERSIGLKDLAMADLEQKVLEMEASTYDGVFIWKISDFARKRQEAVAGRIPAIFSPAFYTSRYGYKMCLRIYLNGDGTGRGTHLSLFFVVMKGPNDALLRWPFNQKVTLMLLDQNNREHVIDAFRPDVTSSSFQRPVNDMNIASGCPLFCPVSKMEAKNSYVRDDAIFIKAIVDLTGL
Description: median log2 fold change of GCK-ALFA target abundance (FLAG IP / Myc IP barcode read proportion) (log2 ratio); each designed protein is fused to an ALFA-tag nanobody in HEK293 cells to bring the named protein to FLAG-tagged glucokinase (GCK); Myc marks an untargeted standard; higher = target protein stabilised (more abundant). The following applies: target protein: 3xFLAG-MCP-GCK-ALFA reporter; HEK293 landing pad (RPLP). In a few lines: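 The readout is target abundance, the per-binder median log2 ratio of FLAG to Myc barcode read proportions. It came from HEK293 landing-pad cells carrying a recombined ALFA-nanobody-fused binder library, induced with 2 μg mL^−1 doxycycline and transfected with a plasmid for a FLAG-tagged target and a Myc-tagged standard. After 48 h, lysates were immunoprecipitated with anti-FLAG and anti-Myc, and circular RNA barcodes were reverse transcribed, amplified and sequenced. Each barcode needed a proportion of at least 10^−7 in both replicates and each binder at least 3 barcodes per replicate, a pseudocount of 10^−6 was added, and the replicates were pooled.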
On to B1, for which the “median log2 fold change” value was -0.778.

As to B2, the “median log2 fold change” value was -0.0674.

Turning to B3, the “median log2 fold change” value was -0.722.

In the case of B4, the “median log2 fold change” value turned out to be 0.245.

For B5, the “median log2 fold change” value turned out to be 0.261.

B6: the “median log2 fold change” value was 0.389.

Take B7: the “median log2 fold change” value is 0.187.

For the molecule B8, the “median log2 fold change” value stood at 0.297.

On to B9, for which the “median log2 fold change” value was -0.816.

For B10, the “median log2 fold change” value was -0.201.

B11: the “median log2 fold change” value amounted to 0.335.

For B12, the “median log2 fold change” value is -0.0287.

As to B13, the “median log2 fold change” value was 0.248.

As for B14, the “median log2 fold change” value was found to be 0.215.

For B15, the “median log2 fold change” value is 0.162.

Take B16: the “median log2 fold change” value was -0.0766.

On to B17, for which the “median log2 fold change” value is 0.425.

B18: the “median log2 fold change” value was -0.683.

As to B19, the “median log2 fold change” value worked out at 0.417.
